According to the RNAGym collection of RNA variant scans (doi:10.1101/gad.245936.114):
This sample is rich in variants without activity.

B1: tRNA (parent)
chain: CUCUCGGUAGCCAAGUUGGUUUAAGGCGCAAGACUUUAAUUUAUCACUACGAAAUCUUGAGAUCGGGCGUUCGACUCGCCCCCGGGAGAUUUUUUCCUCGAGCAA

Variants of: B1
Experiment: nonsense suppression (GFP-seq) (ratio to wild type); higher = more function; SUP4oc tRNA, yeast GFP reporter sort-seq
Method in brief: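 Nonsense suppression (GFPSEQ) is the median GFP/RFP ratio of each sorting bin, weighted by the variant's estimated share of cells in that bin and expressed relative to the unmutated parent tRNA. Yeast strains carried genome-integrated variants of an ochre-suppressor tRNA from a library with ~3% random mutations, plus a galactose-driven GFP ochre reporter and RFP, and were grown in raffinose/galactose medium containing 80 mg/L adenine. Cells were sorted into GFP/RFP bins, each bin was Illumina-sequenced (phred ≥30), and variants were kept only with ≥100 reads and ≥30 cells.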

Variant	nonsense suppression
G6U G78C	≤ 0.026
G6U G84U	≤ 0.026
G6U U8G C81A	≤ 0.026
G6U U16A U17G C77A	≤ 0.026
G6U U16C U35C	≤ 0.026
G6U U16G G59A G78A	≤ 0.026
G6U U17A	≤ 0.026
G6U U17C A24U G61C	≤ 0.026
G6U U17C G28U U55C G69U G88U	≤ 0.026
G6U U17C U21A G26A G32U G59A G65A G85A	≤ 0.026
G6U U17G C27G U70C	≤ 0.026
G6U U20A C83G	0.186
G6U U20A U35A A62G C72A C79U	≤ 0.026
G6U U20C A30U G59U A89C	≤ 0.026
G6U U21A A74G	≤ 0.026
G6U U21C	≤ 0.026
G6U U22C G88C	≤ 0.026
G6U U35A	≤ 0.026
G6U U35G	≤ 0.026
G6U U35G A62G	≤ 0.026
G6U U55C A89C	≤ 0.026
G6U U55C A89G	≤ 0.026
G6U U57C	≤ 0.026
G6U U57C C82A	≤ 0.026

Variant	nonsense suppression
G6U U58G	≤ 0.026
G6U U58G G69A	≤ 0.026
G6U U63C G66C	≤ 0.026
G6U U63G U71C G85U A89C	≤ 0.026
G6U U70C	≤ 0.026
G6U U76A	≤ 0.026
G6U U76A G86A	≤ 0.026
G6U U76G	≤ 0.026
G7A	≤ 0.026
G7A A9G A14U	≤ 0.026
G7A A13C C27U U71C G85U	≤ 0.026
G7A A13C C75A	≤ 0.026
G7A A13G C27A A74G	≤ 0.026
G7A A14C G59C C68G	≤ 0.026
G7A A14C G67U A74G	≤ 0.026
G7A A14C G69C G73U C75U G88C	≤ 0.026
G7A A14G G26U	≤ 0.026
G7A A23G G32A A33C	≤ 0.026
G7A A24C A60C G88U A89C	≤ 0.026
G7A A24C U55C	≤ 0.026
G7A A33G C80G	≤ 0.026
G7A A33U U76C A87C	≤ 0.026
G7A A54C C64A	≤ 0.026
G7A A60C G85U	≤ 0.026

Variant	nonsense suppression
G7A A62G	≤ 0.026
G7A A74C	≤ 0.026
G7A A74G A87G	≤ 0.026
G7A A87G	≤ 0.026
G7A A89G	≤ 0.026
G7A A89U	≤ 0.026
G7A C11A G25U A74C	≤ 0.026
G7A C11A U70C	≤ 0.026
G7A C11U C27A G32A A54C C81G	≤ 0.026
G7A C11U U57C G61C	≤ 0.026
G7A C12U A60U U70C	≤ 0.026
G7A C27A U71G	≤ 0.026
G7A C27U A31U	≤ 0.026
G7A C29A C56U C64U	≤ 0.026
G7A C34A U55A	≤ 0.026
G7A C34G	≤ 0.026
G7A C34U	≤ 0.026
G7A C34U G78U	≤ 0.026
G7A C56A	≤ 0.026
G7A C68G C81A	≤ 0.026
G7A C81G	≤ 0.026
G7A C82G	≤ 0.026
G7A C83U A87C	≤ 0.026
G7A G10A	≤ 0.026

Variant	nonsense suppression
G7A G10C G15A G61C G84C	≤ 0.026
G7A G10U	≤ 0.026
G7A G10U U17A U21C	≤ 0.026
G7A G15A A31G C79A	≤ 0.026
G7A G15A U70C	≤ 0.026
G7A G15C U16C	≤ 0.026
G7A G15U C34G U70G C77G	≤ 0.026
G7A G15U U55C A74G	≤ 0.026
G7A G18U U76A	≤ 0.026
G7A G19C C34U G61C A87C	≤ 0.026
G7A G19U A23U	≤ 0.026
G7A G19U U58G	≤ 0.026
G7A G19U U71A	≤ 0.026
G7A G19U U71C	≤ 0.026
G7A G25A	≤ 0.026
G7A G25C A30G	≤ 0.026
G7A G25C G61U U63G C64G	≤ 0.026
G7A G26A G28A C82G A89U	≤ 0.026
G7A G26U A60G	≤ 0.026
G7A G28U C34A	≤ 0.026
G7A G32C C64U C72A	≤ 0.026
G7A G32U	≤ 0.026
G7A G78C C82G	≤ 0.026
G7A G78C C83U G88U	≤ 0.026

Variant	nonsense suppression
G7A G86C	≤ 0.026
G7A U8A C11G G73C A87U	≤ 0.026
G7A U8A G15U G19C A54U C56G G66U A87G	≤ 0.026
G7A U8C	≤ 0.026
G7A U16C	≤ 0.026
G7A U16G A31C A60C	≤ 0.026
G7A U16G G26C U71G	≤ 0.026
G7A U17A C83A	≤ 0.026
G7A U17A G18C	≤ 0.026
G7A U17A G26A A31G U55A C72G	≤ 0.026
G7A U20G U35A	≤ 0.026
G7A U22A G61A	≤ 0.026
G7A U22C C27G G88C	≤ 0.026
G7A U35G G59A	≤ 0.026
G7A U55A	≤ 0.026
G7A U57C	≤ 0.026
G7A U58C G59U A60C	≤ 0.026
G7A U63C	≤ 0.026
G7A U70A A89C	≤ 0.026
G7A U71C	≤ 0.026
G7C	≤ 0.026
G7C A9C G15C U16G C72U	≤ 0.026
G7C A9C G18U G25U C81A	≤ 0.026
G7C A9C G86U	≤ 0.026

Variant	nonsense suppression
G7C A9C U17G	≤ 0.026
G7C A9C U57C C75A	≤ 0.026
G7C A9G G26U C34U U70C G85A	≤ 0.026
G7C A9G U16C C56G G69C	≤ 0.026
G7C A9U C82U	≤ 0.026
G7C A9U U63C U71A	≤ 0.026
G7C A13C A14U U70A C83G	≤ 0.026
G7C A13G U21G U63A C80A C82U	≤ 0.026
G7C A14U C79A	≤ 0.026
G7C A23C C81U C82U	≤ 0.026
G7C A23C G84U	≤ 0.026
G7C A23C U55C C82U	≤ 0.026
G7C A23G A33U G69A G85A	≤ 0.026
G7C A23G G67U	≤ 0.026
G7C A23U C34G U63A C75A	≤ 0.026
G7C A23U C77U	≤ 0.026
G7C A31G	≤ 0.026
G7C A31G C34A C56A	≤ 0.026
G7C A31G C77A	≤ 0.026
G7C A31U C34G G61U	≤ 0.026
G7C A33U	≤ 0.026
G7C C11G	≤ 0.026
G7C C11G C79A	≤ 0.026
G7C C11G G18U U22A A31U A87C	≤ 0.026

Variant	nonsense suppression
G7C C11U A30G	≤ 0.026
G7C C12A C29U	≤ 0.026
G7C C12A G25C U76A	≤ 0.026
G7C C12A U71G U76C G88A	≤ 0.026
G7C C12G C34G U55A	≤ 0.026
G7C C27A	≤ 0.026
G7C C27A G59U C79A	≤ 0.026
G7C C27U C29A A74G	≤ 0.026
G7C C29A A89U	≤ 0.026
G7C C29A C79G	≤ 0.026
G7C C29G A30G G61U U70C G85C	≤ 0.026
G7C C34U U76C A89C	≤ 0.026
G7C C56G G69C	≤ 0.026
G7C C79U	≤ 0.026
G7C C80G	≤ 0.026
G7C C82U	≤ 0.026
G7C G10C A33C C75A	≤ 0.026
G7C G10U	≤ 0.026
G7C G15A G19C G25U	≤ 0.026
G7C G15A G25C U70G	≤ 0.026
G7C G15U G86A	≤ 0.026
G7C G18U U20G A30C A87C	≤ 0.026
G7C G19A C72G	≤ 0.026
